Experimental data reported in the supplement of paper PMC4604168 (melanoma cell lines).
This is one part of the list. Most values come without repeats; read them as rough.

Assays:
Test in all cases: cell count relative to DMSO control; melanoma cells; higher = more viable cells
Conditions in all cases: library dose: standard library concentration; 72 h
G361 = tested on: G361
IPC-298 = tested on: IPC-298
IST-MEL1 = tested on: IST-MEL1
LB2518-MEL = tested on: LB2518-MEL
LOXIMVI = tested on: LOXIMVI
MEL-HO = tested on: MEL-HO
MZ2-MEL = tested on: MZ2-MEL
MeWo = tested on: MeWo
RPMI7951 = tested on: RPMI7951
RVH-421 = tested on: RVH-421
SkMel28 = tested on: SkMel28
SkMel2 = tested on: SkMel2
SkMel30 = tested on: SkMel30
SkMel5 = tested on: SkMel5
UACC257 = tested on: UACC257
UACC62 = tested on: UACC62
WM115 = tested on: WM115
WM1716 = tested on: WM1716
WM1745 = tested on: WM1745
WM3526 = tested on: WM3526
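Note: cells treated in 1,536-well plates, then fixed and DAPI-stained, with nuclei counted from automated high-throughput microscope images.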

SMILES	cell count (G361) [%]	cell count (IPC-298) [%]	cell count (IST-MEL1) [%]	cell count (LB2518-MEL) [%]	cell count (LOXIMVI) [%]	cell count (MEL-HO) [%]	cell count (MZ2-MEL) [%]	cell count (MeWo) [%]	cell count (RPMI7951) [%]	cell count (RVH-421) [%]	cell count (SkMel28) [%]	cell count (SkMel2) [%]	cell count (SkMel30) [%]	cell count (SkMel5) [%]	cell count (UACC257) [%]	cell count (UACC62) [%]	cell count (WM115) [%]	cell count (WM1716) [%]	cell count (WM1745) [%]	cell count (WM3526) [%]
Cc1ccc(NC(=O)c2cccc(N(C)C)c2)cc1NC(=O)c1ccc(O)cc1 + Cn1cncc1[C@@](N)(c1ccc(Cl)cc1)c1ccc2c(c1)c(-c1cccc(Cl)c1)cc(=O)n2C [tipifarnib] (first compound 10 µM, partner dose 0.05 µM)	68.6	86.3	83.9	70.8	84.6	92.1	110	92.3	66	7.09	77.9	72.6	104	67.1	87.4	78.3	77.1	78.4	91.7	71.7
NC(=O)c1ccc(N(C(N)=O)c2c(F)cccc2F)nc1-c1ccc(F)cc1F + OCCn1cc(-c2cnc3nnn(Cc4ccc5ncccc5c4)c3n2)cn1 [PF04217903] (first compound 2 µM, partner dose 5 µM)	81.3	112	91.9	108	141	95.1	115	104	109	98.5	83.4	89.7	111	97.1	111	110	78.9	107	92.5	92.1
CCCCCCCCc1ccc(CCC(N)(CO)CO)cc1 [fingolimod] + NC1(c2ccc(-c3nc4ccn5c(=O)[nH]nc5c4cc3-c3ccccc3)cc2)CCC1 [MK2206] (first compound 10 µM, partner dose 2 µM)	1.49	58.3	7.3	0.324	20.1	3	22.2	35.4	1.02	9.78	1.06	0.628	11.1	52.4	70.7	9.24	14.4	39.9	11.3	24.8
NC(=O)c1ccc(N(C(N)=O)c2c(F)cccc2F)nc1-c1ccc(F)cc1F + CC(C)C[C@H](NC(=O)[C@H](Cc1ccccc1)NC(=O)c1cnccn1)B(O)O [Bortezomib] (first compound 2 µM, partner dose 0.005 µM)	1.25	11.3	6.14	0.948	21.9	29.6	5.87	19.2	1.94	10.1	34.8	51.2	34.9	36.2	78.1	49.7	29.1	14.4	16	30.8
NC(=O)c1ccc(N(C(N)=O)c2c(F)cccc2F)nc1-c1ccc(F)cc1F + Cn1cncc1[C@@](N)(c1ccc(Cl)cc1)c1ccc2c(c1)c(-c1cccc(Cl)c1)cc(=O)n2C [tipifarnib] (first compound 2 µM, partner dose 0.05 µM)	80.1	94.3	82.3	83.7	77.7	90.2	101	86.3	85.1	93.1	56.4	76.3	95.1	77.2	87.1	68.5	86.2	77.5	142	81.1
Cc1ccc(NC(=O)c2cccc(N(C)C)c2)cc1NC(=O)c1ccc(O)cc1 + CC(C)CCN1c2nc(Nc3cc(F)c(O)c(F)c3)ncc2N(C)C(=O)C1C [BID1870] (first compound 10 µM, partner dose 1 µM)	73.8	79.7	81	98.3	103	73.5	79.7	68.5	61.5	112	71.3	70.3	58.6	60.1	83.2	74.2	70.6	96.8	65.5	60.1
CN(NC(=O)CC(=O)NN(C)C(=S)c1ccccc1)C(=S)c1ccccc1 + COc1ccc2c(c1)CCC1C2CCC2(C)C(NCCCCCCN3C(=O)C=CC3=O)CCC12 [U73122] (first compound 0.03 µM, partner dose 2 µM)	77.5	100	104	100	82.9	97.5	94.3	78.9	73.4	130	110	109	106	105	102	85.6	85	59.2	92.2	85.7
Cc1ccc(NC(=O)c2cccc(N(C)C)c2)cc1NC(=O)c1ccc(O)cc1 + O=c1cc(-c2cccc3c2Sc2ccccc2S3)oc(N2CCOCC2)c1 [KU55933] (first compound 10 µM, partner dose 5 µM)	64	76.1	91.9	54.1	83	76.7	81.8	91.9	73.1	100	72.2	84.3	72	87.1	89.9	77.7	97.7	121	92.5	79
CCc1ccc(CCOc2ccc(CC3SC(=O)NC3=O)cc2)nc1 (stereo not given) [pioglitazone] + COc1ccc(COc2ccc(Cc3cnc(N)nc3N)cc2OC)cc1 [GW2580] (first compound 10 µM, partner dose 5 µM)	83.8	88.8	99.4	90.2	92.2	100	102	117	91.7	98	52.4	96.7	102	82.5	79	113	105	95	77.5	94.5
Cc1ccc(NC(=O)c2cccc(N(C)C)c2)cc1NC(=O)c1ccc(O)cc1 + CO[C@@H]1[C@H](N(C)C(=O)c2ccccc2)C[C@H]2O[C@]1(C)n1c3ccccc3c3c4c(c5c6ccccc6n2c5c31)C(=O)NC4 [Midostaurin] (first compound 10 µM, partner dose 0.4 µM)	49	63.6	76.8	49.8	61	77.1	48.1	68.4	31.6	81.5	47.3	47.5	62.9	52.5	61.3	70.2	46.5	35.6	24.6	62
CN(NC(=O)CC(=O)NN(C)C(=S)c1ccccc1)C(=S)c1ccccc1 + COc1ccc(COc2ccc(Cc3cnc(N)nc3N)cc2OC)cc1 [GW2580] (first compound 0.03 µM, partner dose 5 µM)	42.4	77.8	24.7	73.7	77.9	93.6	98.7	28.4	83.4	64.1	30.5	97	101	40.1	89.5	27.9	30.6	76.4	39.3	95.8
CCc1ccc(CCOc2ccc(CC3SC(=O)NC3=O)cc2)nc1 (stereo not given) [pioglitazone] + COc1cc(N2CCC(N3CCN(C)CC3)CC2)ccc1Nc1ncc(Cl)c(Nc2ccccc2S(=O)(=O)C(C)C)n1 [NVP-TAE684] (first compound 10 µM, partner dose 0.4 µM)	97.2	99.7	92.7	103	111	98.5	100	72.4	96.6	80.8	55.2	75.7	99.8	72.8	80.2	78.9	81.9	80.5	73.2	81.8
CCc1ccc(CCOc2ccc(CC3SC(=O)NC3=O)cc2)nc1 (stereo not given) [pioglitazone] + Cc1cc([N+](=O)[O-])ccc1NS(=O)(=O)c1cc(Cl)ccc1Cl [FH535] (first compound 10 µM, partner dose 5 µM)	37.8	46.5	57.1	84	57.5	51.1	75.6	83.5	102	59.6	62.9	96.7	87.8	76.3	70.3	106	83.9	88.8	72.5	74.5
CCCCCCCCc1ccc(CCC(N)(CO)CO)cc1 [fingolimod] + OCc1c[nH]c2ccccc12 [Indole-3-carbinol] (first compound 10 µM, partner dose 4 µM)	0.738	38	5.3	0.19	5.34	2.1	31.5	8.79	1.97	1.16	0.264	0.382	6.09	35.1	56.2	8.9	13	17.9	12.6	24.6
COc1cc2c(Oc3ccc4[nH]c(C)cc4c3F)ncnc2cc1OCCCN1CCCC1 [cediranib] + O=C1NC(=O)/C(=C/c2ccc(-c3ccc(F)cc3O)o2)S1 [AS252424] (first compound 2 µM, partner dose 5 µM)	88.7	96.7	123	89.7	99.4	85.1	105	86.1	96.7	26.8	108	86.6	89.5	106	95.7	81.6	112	113	72.7	72.3
CCCCCCCCc1ccc(CCC(N)(CO)CO)cc1 [fingolimod] + CC(=O)c1c(C)c2cnc(Nc3ccc(N4CCNCC4)cn3)nc2n(C2CCCC2)c1=O [palbociclib] (first compound 10 µM, partner dose 0.2 µM)	0.511	30.5	12.1	0.201	9.28	11.3	0.288	25.1	2.81	3.11	1.26	0.274	18.5	41.7	75.7	13.6	16.6	37.4	3.25	35.9
NC(=O)c1ccc(N(C(N)=O)c2c(F)cccc2F)nc1-c1ccc(F)cc1F + O=C(O)[C@@H]1[O][Sb](=[O])([O][Sb]2(=[O])[O][C@H]([C@H](O)CO)[C@H](O)[C@H](C(=O)O)[O]2)[O][C@H]([C@H](O)CO)[C@@H]1O [stibogluconate] (first compound 2 µM, partner dose 10 µM)	109	83.7	110	91.3	102	89.4	108	96.8	113	82.7	106	94.2	122	93.2	124	79.6	102	105	91.5	93.2
